From PubChem BioAssay AID743279 (National Center for Advancing Translational Sciences (NCATS), 2014)
Hit rate of the full screen: of about 360,000 compounds, about 17,000 (4.7%) were called active. Inconclusive means that the source gave no clear call. Such entries were picked first, then a sample of the others. Rule as the data show it: active = activity change below about -50%; inconclusive = mostly about -30% to -49%; inactive = weaker than that.

Experiment: qHTS for Inhibitors of Inflammasome Signaling: IL-1-beta AlphaLISA Primary Screen
Conditions: THP-1 LPS/ATP IL-1B secretion, 16 h; at 57.5 µM, active compounds read low
Method in brief: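 Secreted IL-1B measured by AlphaLISA bead assay after 16 h compound exposure of THP-1 cells; compounds (final up to 57.5 uM) added 1 h before LPS (250 ng/mL) and ATP (1.25 mM) stimulation; lower signal means less secretion.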
% is scaled to controls: 0 for no effect and ±100 for the full control effect.

Activity change, inactive:
O=C(CCN1C(=O)C2CC=CCC2C1=O)Nc1cc(C(F)(F)F)ccc1N1CCCC1 (centres undefined) 13.2%
CCOc1ccc(S(=O)(=O)N=C(c2ccccc2)N2CCOCC2)cc1 13%
CCN1C[C@@H]2[C@@H]3C(=O)N(C)C(=O)[C@@H]3[C@](CC)(C1=O)N2C(=O)c1ccc(Cl)cc1 5.01%
N=c1c(C(=O)NCCN2CCOCC2)cc2c(=O)n3ccccc3nc2n1CCc1ccccc1 2.33%
COc1ccc(NC(=S)N2CCC(C(=O)c3ccc(C)cc3)CC2)c(OC)c1 -22.3%
CCOc1ccc(OCCOc2ncnc3ccccc23)cc1 -1.18%
Cc1ccc(C)c(OC(=O)C2CSC3(C)CCC(=O)N23)c1C (centres undefined) -20.9%
COc1ccccc1C(CNC(=O)c1ccc(NS(=O)(=O)c2ccc3c(c2)OCCO3)cc1)N(C)C (centres undefined) -3.73%

Activity change, active:
CCOC(=O)c1sc(NC(=O)CCN2CCN(CC)CC2)c(C(=O)OCC)c1C -215%
CCN(C[C@H]1N[C@@](Cc2ccccc2)(C(=O)OC)[C@H]2C(=O)N(Cc3ccccc3)C(=O)[C@@H]12)C(C)=O -86.3%
CCN1C(=O)CSC1=NC12CC3CC(CC(C3)C1)C2 -65.8%
O=c1cc(N2CCCCC2)c(-c2ccccc2)nn1Cc1ccccc1 -99.5%
CCN(CC)CCCCN1c2ccccc2Sc2ccccc21 -70.2%
NC(=O)CSc1cn(Cc2ccccc2)c2ccccc12 -64.6%
CCCc1nnc(NC(=O)c2nc(S(=O)(=O)Cc3ccc(C)cc3)ncc2Cl)s1 -95.6%
COc1cc2c(cc1OC)C(c1ccccc1)N(C(=O)CCl)CC2 (centres undefined) -95.7%
Cc1nnc(NC(=O)c2nc(S(=O)(=O)Cc3ccccc3)ncc2Cl)s1 -103%
N#C/C(=C\c1ccc(-c2cccc([N+](=O)[O-])c2)o1)C(=O)NCCN1CCOCC1 -79.4%

Activity change, inconclusive:
O=C(N/N=C/c1ccccc1O)NC12CC3CC(CC(C3)C1)C2 -36.7%
Clc1cccc(/C=N/Nc2nnc(Cl)c3ccccc23)c1 -35.8%
CC(C)C(=O)N1CCN(c2ccc(NC(=O)c3cccs3)cc2)CC1 -36.9%
Cc1ccc(C(=O)Nc2ccc3c(c2)OCCO3)c(Cl)c1 -30.9%
CCOc1ccccc1C1c2[nH]c3ccccc3c2C[C@H]2C(=O)N(C3CCN(Cc4ccccc4)CC3)CC(=O)N12 (some centres undefined) -31.3%
Cc1ccc(NC(=O)c2ccc(NS(=O)(=O)/C=C/c3ccccc3)cc2)nc1 -41.8%
C/C(CCC1CC(C)OC1=O)=N\NC(N)=S (centres undefined) -34.5%
COc1cc(SC#N)ccc1N=Cc1c(C)[nH]n(-c2ccc(Cl)cc2)c1=O -43.2%
CCCN1CCC(NC(=O)Nc2cc(Cl)ccc2OC)CC1 -36.9%
Cc1ccc(CN2CCN(/N=C/c3ccco3)CC2)c(C)c1 -37%
CC(C)(C)C1CCC(CN2C(Nc3ccccc3)=NC[C@@H]2Cc2ccccc2)CC1 (some centres undefined) -36.7%
COCCNC(=O)/C(C#N)=C/c1ccc(OCc2ccccc2)cc1 -48.9%
O=C(CSc1cc(Cl)ccc1Cl)NCC(=O)Nc1ccc(F)c(F)c1F -30%
Cc1ccc(NC(=O)N2CCCC2C(=O)NCc2ccc(Cl)cc2)cc1 (centres undefined) -36.4%
COc1ccc(-c2nc(S(=O)(=O)c3ccccc3)c(N3CCN(C)CC3)o2)cc1 -33.3%
CCOC(=O)c1cccc(-c2c(-c3ccccc3)ncc3cc(OC)c(OC)cc23)c1 -49.8%
Cc1cc(=O)n2c3ccccc3n(CC(O)CN3CCCCC3)c2c1C#N (centres undefined) -40.5%
CC1(C)Cc2c(ccc3ccccc23)C(=O)N1 -33.7%
O=C(Nc1ccc2c(c1)OCO2)Nc1ccc(Cl)cc1Cl -43.5%
COc1ccc(NC(=O)c2cc(SC)ccc2Cl)cc1 -39.5%
O=C(c1ccc(N2CCCCC2)c([N+](=O)[O-])c1)N1CCN(S(=O)(=O)c2ccccc2)CC1 -42.1%
Cc1nn(C)c(C)c1NC(=O)CCl -40.1%
COc1ccc(N2CCN(C(c3cc4cc(C)ccc4[nH]c3=O)c3nnnn3Cc3ccccc3)CC2)cc1 (centres undefined) -48.6%
COc1cc2c(cc1OC)C(C(=O)Nc1ccccc1N1CCN(C)CC1)C1c3ccccc3CCN1C2=O (centres undefined) -30.7%
CN1CCN(C(=O)c2cc3nc(-c4ccccc4)cc(-c4ccccc4)n3n2)CC1 -40.2%
Cc1nc(Nc2ccccc2)sc1C(=O)c1ccccc1 -45.5%
CCN(CC)CCNC(=O)c1ccc(NC(=O)c2c(C)nn(-c3ccc(F)cc3)c2Cl)cc1 -37.1%
CCOC(=O)Cc1cc(=O)n2[nH]cc(-c3ccc(Cl)cc3)c2n1 -48.4%
COc1ccc(/C=C2\NC(=S)N(CC3CCCO3)C2=O)c(OC)c1C (centres undefined) -33.3%
O=C(NCCO)c1cc2c([nH]c3ccccc32)c(-c2ccccc2)n1 -35.7%
N#Cc1c(N)nc2c3c(sc(=N)c2c1N)NC(=O)CC3c1ccccc1 (centres undefined) -34.6%
COC(=O)c1cc(NC(=O)c2cc(-c3ccc(Cl)cc3)oc2C(F)(F)F)ccc1N1CCOCC1 -31.9%
O=C(c1cc(COc2cccc(C(F)(F)F)c2)on1)N1CCC(c2ccncc2)CC1 -38.8%
COc1cccc(NC(=O)CN(C)C(=O)c2ccc3[nH]c4c(c3c2)CC(C)CC4)c1 (centres undefined) -42.1%
COC(=O)C1=CN(c2ccc(F)c(F)c2)C=C(C(=O)OC)C1c1ccc([N+](=O)[O-])cc1 -37%
CCOC(=O)CCCCC(=O)c1[nH]c(=O)[nH]c1C[n+]1ccc(C)cc1 -35%
